The supplement of paper PMC4967469
By IC50 is meant the dose at which the fit gives 50% viability; fits outside the tested doses are given as limits. AUC, from the same fit, is the share of area under the viability curve across the 256-fold dose range; the more sensitive the line, the further below 1. For some assays here: The top dose, if marked as inferred, was calculated from the reported fits.

Key:
Assay in all cases: Viability of human cancer cell lines after 72 h of drug (GDSC screen)
[1] = compound: Oc1ccc2ccccc2c1SSc1c(O)ccc2ccccc12 [IPA-3]; conditions: top dose 32 µM; top dose inferred
Description: (§1)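 Human cancer cell lines in 384-well plates, medium with 10% serum, drug for 72 h over a 256-fold dose range (nine 2-fold or five 4-fold steps up to the top dose). Adherent lines were fixed and stained with the nucleic acid dye Syto60, suspension lines read with resazurin; signal relative to control wells, capped at 0 and 100%. One two-parameter sigmoid per drug and line, fitted in a mixed model over all curves with the slope shared within a line.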

[2] = compound: O=C(NOCC1CC1)c1ccc(F)c(F)c1Nc1ccc(I)cc1Cl [CI-1040]; conditions: top dose 10 µM; top dose inferred
Description: as §1

[3] = compound: Cn1nnc2c(C(N)=O)ncn2c1=O [Temozolomide]; conditions: top dose 30 µM
Description: as §1

[4] = compound: COc1cc2c(Oc3ccc(NC(=O)C4(C(=O)Nc5ccc(F)cc5)CC4)cc3F)ccnc2cc1OCCCN1CCOCC1 [XL-880]; conditions: top dose 5.12 µM; top dose inferred
Description: as §1

[5] = compound: CN1CCc2c(c3ccccc3n2Cc2ccc(C(=O)NO)cc2)C1 [Tubastatin A]; conditions: top dose 20 µM
Description: as §1

Cell Line	AUC [1]	IC50 [1]	AUC [2]	IC50 [2]	AUC [3]	IC50 [3]	AUC [4]	IC50 [4]	AUC [5]	IC50 [5]
H3255 (lung adenocarcinoma, adherent)	0.94	> 32 µM	0.908	> 10 µM	0.933	> 30 µM	0.871	> 5.12 µM	0.968	> 20 µM
SiHa (cervix, adherent)	0.987	> 32 µM	0.942	> 10 µM	0.983	> 30 µM	0.976	> 5.12 µM	0.985	> 20 µM
SKG-IIIa (cervix, adherent)	0.982	> 32 µM	0.941	> 10 µM	0.975	> 30 µM	0.983	> 5.12 µM	0.981	> 20 µM
NB12 (neuroblastoma, adherent)	0.974	> 32 µM	0.961	> 10 µM	0.944	> 30 µM	0.791	3.22 µM	0.786	12 µM
NCI-H3122 (lung adenocarcinoma, adherent)	0.862	28.9 µM	0.812	5.55 µM	0.985	> 30 µM	0.668	0.956 µM	0.923	> 20 µM
EBC-1 (lung squamous cell carcinoma, adherent)	0.836	25.2 µM	0.692	2.33 µM	0.955	> 30 µM	0.356	0.121 µM	0.983	> 20 µM
A431 (skin, adherent)	0.784	13 µM	0.828	5.84 µM	0.984	> 30 µM	0.496	0.313 µM	0.927	> 20 µM
NCI-H2172 (non-small cell lung carcinoma, adherent)	0.87	> 32 µM	0.975	> 10 µM	0.981	> 30 µM	0.783	3 µM	0.977	> 20 µM
EFO-27 (ovary, adherent)	0.749	12.7 µM	0.758	4.29 µM	0.95	> 30 µM	0.671	1.08 µM	0.899	> 20 µM
CAL-72 (osteosarcoma, adherent)	0.818	22.4 µM	0.76	4.11 µM	0.971	> 30 µM	0.902	> 5.12 µM	0.983	> 20 µM
NCI-H1703 (lung adenocarcinoma, adherent)	0.975	> 32 µM	0.913	> 10 µM	0.954	> 30 µM	0.696	1.3 µM	0.977	> 20 µM
NCI-H596 (lung adenocarcinoma, adherent)	0.879	> 32 µM	0.927	> 10 µM	0.976	> 30 µM	0.742	1.98 µM	0.982	> 20 µM
SK-MEL-24 (melanoma, adherent)	0.862	> 32 µM	0.714	2.91 µM	0.962	> 30 µM	0.504	0.329 µM	0.975	> 20 µM
PA-TU-8988T (pancreas, adherent)	0.771	12.3 µM	0.839	6.87 µM	0.984	> 30 µM	0.731	1.46 µM	0.986	> 20 µM
UM-UC-3 (bladder, adherent)	0.896	> 32 µM	0.86	7.58 µM	0.984	> 30 µM	0.59	0.556 µM	0.937	> 20 µM
NCI-H2023 (lung adenocarcinoma, adherent)	0.967	> 32 µM	0.922	> 10 µM	0.98	> 30 µM	0.781	2.68 µM	0.981	> 20 µM
H2373 (mesothelioma, adherent)	0.983	> 32 µM	0.854	> 10 µM	0.981	> 30 µM	0.67	1.08 µM	0.963	> 20 µM
JHH-4 (liver, adherent)	0.839	21.8 µM	0.901	> 10 µM	0.976	> 30 µM	0.493	0.306 µM	0.961	> 20 µM
BICR78 (head and neck, adherent)	0.939	> 32 µM	0.578	1.05 µM	0.981	> 30 µM	0.758	2.04 µM	0.983	> 20 µM
HT-3 (cervix, adherent)	0.937	> 32 µM	0.898	> 10 µM	0.981	> 30 µM	0.701	1.19 µM	0.967	> 20 µM
PC-3 [JPC-3] (lung adenocarcinoma, adherent)	0.979	> 32 µM	0.895	> 10 µM	0.957	> 30 µM	0.766	2.51 µM	0.977	> 20 µM
RMG-I (ovary, adherent)	0.872	> 32 µM	0.954	> 10 µM	0.981	> 30 µM	0.682	1.13 µM	0.962	> 20 µM
YKG-1 (glioma, adherent)	0.741	9.93 µM	0.856	8.2 µM	0.985	> 30 µM	0.672	0.971 µM	0.963	> 20 µM
ACHN (kidney, adherent)	0.756	12.4 µM	0.738	3.33 µM	0.971	> 30 µM	0.656	0.923 µM	0.967	> 20 µM
CAL-29 (bladder, adherent)	0.876	> 32 µM	0.77	4.08 µM	0.957	> 30 µM	0.72	1.42 µM	0.982	> 20 µM
SCC-25 (head and neck, adherent)	0.976	> 32 µM	0.814	6.35 µM	0.975	> 30 µM	0.489	0.297 µM	0.89	> 20 µM
